{"source": "paper PMC4336329", "about": "(PLoS ONE, 2015)", "note": "Screen size: about 310,000 compounds; about 14,000 (4.5%) showed an effect of 50% or more. The effect is printed as a negative number. The list shows a part of the results.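 Also: peak tail current of the secondary pulse compared with the same well before compound.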"}
{"biological_target": "human ether-à-go-go-related gene (hERG) potassium channel (human, UniProt Q12809)", "sequence (Q12809 whole entry, looked up)": "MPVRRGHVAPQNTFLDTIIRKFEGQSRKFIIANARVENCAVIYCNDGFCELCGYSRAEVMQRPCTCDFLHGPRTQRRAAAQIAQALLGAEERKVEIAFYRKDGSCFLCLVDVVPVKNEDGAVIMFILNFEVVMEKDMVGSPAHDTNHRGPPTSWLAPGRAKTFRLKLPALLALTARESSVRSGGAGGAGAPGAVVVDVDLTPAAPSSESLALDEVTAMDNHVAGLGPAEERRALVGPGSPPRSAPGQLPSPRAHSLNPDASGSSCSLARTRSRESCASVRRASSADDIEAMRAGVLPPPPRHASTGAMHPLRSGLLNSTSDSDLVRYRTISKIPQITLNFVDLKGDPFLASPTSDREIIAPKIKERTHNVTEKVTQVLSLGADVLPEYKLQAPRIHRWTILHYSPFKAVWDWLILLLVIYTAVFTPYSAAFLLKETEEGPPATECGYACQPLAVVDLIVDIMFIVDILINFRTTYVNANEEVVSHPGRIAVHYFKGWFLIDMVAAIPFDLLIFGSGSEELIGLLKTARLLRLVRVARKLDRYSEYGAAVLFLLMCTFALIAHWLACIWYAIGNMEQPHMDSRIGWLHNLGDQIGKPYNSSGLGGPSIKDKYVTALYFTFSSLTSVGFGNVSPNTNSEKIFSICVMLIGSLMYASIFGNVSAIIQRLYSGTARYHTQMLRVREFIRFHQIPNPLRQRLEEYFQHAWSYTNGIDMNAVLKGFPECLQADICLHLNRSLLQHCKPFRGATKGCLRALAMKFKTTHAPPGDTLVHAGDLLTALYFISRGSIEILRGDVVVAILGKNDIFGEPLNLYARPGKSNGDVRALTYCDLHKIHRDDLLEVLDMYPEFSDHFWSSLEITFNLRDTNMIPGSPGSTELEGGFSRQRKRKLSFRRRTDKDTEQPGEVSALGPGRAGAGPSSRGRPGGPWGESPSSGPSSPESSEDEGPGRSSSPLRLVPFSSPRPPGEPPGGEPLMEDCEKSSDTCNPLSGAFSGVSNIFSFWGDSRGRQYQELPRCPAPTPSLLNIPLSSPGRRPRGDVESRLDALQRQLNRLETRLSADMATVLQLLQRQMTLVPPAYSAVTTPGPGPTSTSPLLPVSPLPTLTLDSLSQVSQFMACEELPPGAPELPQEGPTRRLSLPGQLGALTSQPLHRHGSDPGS", "assay": "primary screen, population patch clamp on CHO cells stably expressing hERG", "units": {"hERG current change (%, negative = inhibition) at 10uM": "%"}}
{"compound": "CN(c1ccccc1)S(=O)(=O)c1ccc(NC(=O)c2ccco2)cc1", "hERG current change (%, negative = inhibition) at 10uM": 6.72}
{"compound": "O=C(c1cccc(C(F)(F)F)c1)C1CCCN(C(=O)CCn2cnnn2)C1", "note": "(stereo not shown)", "hERG current change (%, negative = inhibition) at 10uM": -8.45}
{"compound": "C/C(=C\\C(=O)c1ccc(Cl)cc1Cl)N(C)C", "hERG current change (%, negative = inhibition) at 10uM": 34}
{"compound": "COc1cccc(/C=C2\\SC(=S)N(CCCC(=O)N(CCO)c3ccccc3)C2=O)c1", "hERG current change (%, negative = inhibition) at 10uM": 8.96}
{"compound": "CN1CCc2nc(NC(=O)COc3ccc4ccccc4c3)sc2C1", "hERG current change (%, negative = inhibition) at 10uM": -56.2}
{"compound": "Clc1ccc(-c2nnc3n2CCCC3)cc1Cl", "hERG current change (%, negative = inhibition) at 10uM": -3.7}
{"compound": "CCOc1ccc(/C=N/NC(=O)C2CC2)cc1OC", "hERG current change (%, negative = inhibition) at 10uM": 18.3}
{"compound": "CC(=O)C(Sc1ccc2nnc(-c3ccncc3)n2n1)C(C)=O", "hERG current change (%, negative = inhibition) at 10uM": -2.26}
{"compound": "CCn1c(=S)sc2c(=O)n(CC(=O)NC(C)CCc3ccccc3)c(C)nc21", "note": "(stereo not shown)", "hERG current change (%, negative = inhibition) at 10uM": 5.52}
{"compound": "OC1(c2ccc(Cl)cc2)CCN(Cc2cn[nH]c2-c2ccc(F)cc2)CC1", "hERG current change (%, negative = inhibition) at 10uM": -68.7}
{"compound": "C[C@@H]1CCC(=O)N(CC[C@H](N=[N+]=[N-])c2ccccc2)CC1", "hERG current change (%, negative = inhibition) at 10uM": -10.7}
{"compound": "COc1cccc2cc(C(=O)Nc3cccnc3N3CCOCC3)c(=O)oc12", "hERG current change (%, negative = inhibition) at 10uM": 6.41}
{"compound": "O=C(Cc1c[nH]c2ccccc12)OCCOC(=O)Cc1c[nH]c2ccccc12", "hERG current change (%, negative = inhibition) at 10uM": 10.1}
{"compound": "CCn1c(SCC(=O)Nc2nc(C)c(C)s2)nnc1-c1cccnc1", "hERG current change (%, negative = inhibition) at 10uM": -26.2}
{"compound": "O=C(Nc1ccc(F)cc1F)NC1CCN(S(=O)(=O)c2ccc(F)cc2)CC1", "hERG current change (%, negative = inhibition) at 10uM": 9.78}
{"compound": "C=CCC(O)(CCN1CCCCC1)c1ccccc1.Cl", "note": "(stereo not shown)", "hERG current change (%, negative = inhibition) at 10uM": -10.8}
{"compound": "Cc1cc(=O)n2nc(N3CCC(C(=O)NC(C)c4ccccc4)CC3)sc2n1", "note": "(stereo not shown)", "hERG current change (%, negative = inhibition) at 10uM": 5.85}
{"compound": "c1ccc(CSc2ncnc3c2cnn3Cc2ccccc2)cc1", "hERG current change (%, negative = inhibition) at 10uM": 14.9}
{"compound": "Cc1nn(CC(=O)NCC(C)c2ccccc2)c(=O)c2cc(-c3ccccc3)nn12", "note": "(stereo not shown)", "hERG current change (%, negative = inhibition) at 10uM": 22.3}
{"compound": "Cc1ccc(-c2nnc(CSc3nnc(COc4ccccc4)n3-c3ccc(C)cc3)o2)cc1", "hERG current change (%, negative = inhibition) at 10uM": -7.47}
{"compound": "COc1ccc2c(c1OC)C(=O)OC2Nc1ncccc1C", "note": "(stereo not shown)", "hERG current change (%, negative = inhibition) at 10uM": 0.242}
{"compound": "Cc1ccc(NC(=O)C(CC(C)C)NC(=O)C2CCC(C)CC2)nc1", "note": "(stereo not shown)", "hERG current change (%, negative = inhibition) at 10uM": -6.68}
{"compound": "CCOc1c2ccc(C(=O)NCc3ccco3)cc2nn1CC", "hERG current change (%, negative = inhibition) at 10uM": 9.58}
{"compound": "Cc1[nH]ncc1-c1ccccc1Cl", "hERG current change (%, negative = inhibition) at 10uM": 1.29}
{"compound": "Cc1ccc(/C=N/N2CCN(Cc3ccc(Cl)cc3)CC2)o1", "hERG current change (%, negative = inhibition) at 10uM": -23.4}
